Inconclusive means that the source gave no clear call. Such entries were picked first, then a sample of the others. Entries that show only a call come without a potency. Where the call is inconclusive, the potency comes from a doubtful curve fit. Activity calls are given as the source filed them. Calls come from the whole dose curve; as a rule, active = well fitted cell-killing curve with a large enough effect in the repeat runs; inconclusive = weak or mixed curves, or effect the other way; inactive = no such curve, though single readings can be large or run the other way.
test: qHTS assay for small molecule activators of the heat shock response signaling pathway - cell viability counter screen (AID 743209); settings: HSE-bla HeLa viability, CellTiter-Glo luminescence, 5 h; activity change, negative = cytotoxicity: at 62.6 µM (top of the series) unless noted; note: nearly all actives have a fitted effect of over 50% in size
From the text: U.S. Tox21 Program National Center for Advancing Translational Sciences [NCATS] NIH Chemical Genomics Center [NCGC] U.S. Environmental Protection Agency [EPA] National Institutes of Environmental Health Sciences [NIEHS] National Toxicology Program [NTP] U.S. Food and Drug Administration [FDA] Tox21 Assay Overview: Various chemicals, environmental and physiological stress conditions may lead to the activation of heat shock response/ unfolded protein response (HSR/UPR). There are three heat shock transcription factors (HSFs) (HSF-1, -2, and -4) mediating transcriptional regulation of the human HSR. To identify the compounds that activate HSR signaling, HSE-bla HeLa cell line (Invitrogen, Carlsbad, CA, USA) containing a beta-lactamase reporter gene under the control of the heat shock response elements was used to screen Tox21 10K compound library. The cytotoxicity of the Tox21 compound library against the HSE-bla HeLa cell line was tested in parallel by measuring the cell viability using CellTiter-Glo assay (Promega, Madison, WI) in the same wells.
Tox21 Assay Protocol Summary: The CellSensor HSE-bla HeLa cells (Invitrogen, Carlsbad, CA, USA) were dispensed at 1500 cells/6uL/well into 1536-well black wall/clear bottom plates using a Multidrop combi (Thermo Fisher Scientific, Waltham, MA) dispenser. After the assay plates were incubated at 37 C and 5% CO2 overnight, 23 nL of compounds dissolved in DMSO, positive controls or DMSO only was transferred to the assay plate by a Pintool station (Kalypsys, San Diego, CA). The plates were incubated at 37 C for 5 h. After 1 uL of LiveBLAzerTM B/G FRET substrate was added using a Flying Reagent Dispenser (FRD, Beckman Coulter, Indianapolis, IN, USA), the plates were incubated at room temperature for 2.5 h, and fluorescence intensity was measured by an Envision plate reader (PerkinElmer, Shelton, CT). For cell viability readout that measures cytotoxicity, 3 ul/well of CellTiter-Glo reagent was added into the assay plates using a FRD. After 30 min incubation at room temperature, the luminescence intensity in the plates was measured using a ViewLux (PerkinElmer) plate reader.
Potency is the fitted concentration of half-maximal effect; tags give direction and shape of the fitted curve.

SMILES	Potency	activity change, negative = cytotoxicity
COCCc1ccccn1	inconclusive: 0.0237 µM [cytotoxic, full curve, poor fit]	
CCCC(=O)O[C@]1(C(=O)CCl)[C@@H](C)C[C@H]2[C@@H]3CCC4=CC(=O)C=C[C@]4(C)[C@@]3(F)C(=O)C[C@@]21C	inconclusive: 0.596 µM [cytotoxic, full curve, poor fit]	
O=C(Cn1ccnc1[N+](=O)[O-])NCc1ccccc1	inactive	
CCC(C)(C)C1CCC(=O)CC1	inactive	
Cc1ccc(S(=O)(=O)NC(=O)NC2CCCCCCC2)cc1	inactive	
CC(C)(CCC(=O)O)C(=O)O		inconclusive: 1.59% [at 81.1 µM]
O=C(CCBr)N1CCN(C(=O)CCBr)CC1	inactive	
O=C[C@H](O)[C@@H](O)[C@H](O)[C@H](O)CO	inconclusive: 21.9 µM [rising, partial curve, poor fit]	
O=C(Nc1ccccc1)OCC(CN1CCCCC1)OC(=O)Nc1ccccc1 (stereo not given)	inactive	
CC(C)(C)OC(=O)c1ccc(O)cc1	inactive	
C[Si](C)(C)N[Si](C)(C)C	inconclusive: 0.486 µM [rising, full curve, poor fit]	
CC1(C)OC(=O)Nc2ccc(Br)cc21	inconclusive: 1.33 µM [cytotoxic, partial curve, poor fit]	
Cc1ccccc1CCO	inconclusive: 0.0062 µM [cytotoxic, full curve, poor fit]	
CC[C@H]1OC(=O)[C@H](C)[C@@H](O[C@H]2C[C@@](C)(OC)[C@@H](O)[C@H](C)O2)[C@H](C)[C@@H](O[C@@H]2O[C@H](C)C[C@H](N(C)C)[C@H]2O)[C@](C)(OC)C[C@@H](C)C(=O)[C@H](C)[C@@H](O)[C@]1(C)O	inactive	
NCCCC(N)(C(=O)O)C(F)F (stereo not given)	inconclusive: 0.473 µM [cytotoxic, full curve, poor fit]	
CCCCCCCCCCCCCCCC(=O)NCCO	inactive	
CCCCCC(C)N (stereo not given)	inactive	
O=S(O)CO	inactive	
O=C(O)CC(O)C(=O)O (stereo not given)	inactive	
CC(C)C(C)C	inactive	

SMILES	Potency	activity change, negative = cytotoxicity
CN(C)CCCN(C)C	inconclusive: 0.239 µM [rising, full curve, poor fit]	
CCOC(=O)c1cccnc1	inconclusive: 0.298 µM [cytotoxic, single point]	
CCCCCCCC(=O)N(C)C	inactive	
CC/C=C(\C(=O)N[C@@H]1C(=O)N2C(C(=O)OCOC(=O)C(C)(C)C)=C(COC(N)=O)CS[C@H]12)c1csc(N)n1	inactive	
CCCC(CCC)(C(=O)OCC)C(=O)OCC	inconclusive: 0.841 µM [cytotoxic, full curve]	
CCCC(C)C(O)CC (stereo not given)	inconclusive: 54.9 µM [cytotoxic, single point]	
CCC[C@@H]1C[C@@H](C(=O)N[C@@H]([C@H]2O[C@H](SC)[C@H](O)[C@@H](O)[C@H]2O)[C@@H](C)O)N(C)C1	inactive	
NC(=O)NC1N=C([O][Al])NC1=O (stereo not given)	inconclusive: 29.8 µM [cytotoxic, single point]	
CN(C)c1cc(NC(=O)CNC(C)(C)C)c(O)c2c1C[C@H]1C[C@H]3[C@H](N(C)C)C(=O)C(C(N)=O)=C(O)[C@@]3(O)C(=O)C1=C2O	inactive	
COCCCN1CCC(NC(=O)c2cc(Cl)c(N)c3c2OCC3)CC1	inactive	
N[C@@H]1CONC1=O	inactive	
CC1(COc2ccc(CC3SC(=O)NC3=O)cc2)CCCCC1 (stereo not given)	inactive	
CCCCC(CC)COC(=O)c1ccc(C(=O)OCC(CC)CCCC)cc1 (stereo not given)	inactive	
Cc1ccsc1C(=CCCN1CCC[C@@H](C(=O)O)C1)c1sccc1C	inactive	
O=CN1CCOCC1	inactive	
CC(C)=CCCC(C)CC=O (stereo not given)	inactive	
O=S1(=O)CCCC1	inconclusive: 0.0156 µM [rising, full curve, poor fit]	
CC(C)NCC(O)COc1ccc(COCCOC(C)C)cc1 (stereo not given)	inactive	
CCOCCn1c(C2CCN(CCc3ccc(C(C)(C)C(=O)O)cc3)CC2)nc2ccccc21	inactive	
CO/N=C(\C(=O)N[C@@H]1C(=O)N2C(C(=O)O)=C(CSc3nc(=O)c(O)nn3C)CS[C@H]12)c1csc(N)n1	inconclusive: 0.596 µM [cytotoxic, partial curve, poor fit]	

— PubChem BioAssay (Tox21)
